# This is one part of the list.
# System: T1, Caupolican (Caup) homeodomain DNA-binding domain
# T1 sequence: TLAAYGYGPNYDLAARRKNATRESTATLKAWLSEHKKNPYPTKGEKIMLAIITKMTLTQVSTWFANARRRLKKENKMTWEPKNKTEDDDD
# Assay: PBM E-score (8-mer, recovered from the published 9-mer minima) (E-score (dimensionless, -0.5 to 0.5)); Drosophila protein; higher = stronger relative binding preference, active = 0.31 or more
# Summary of the method: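 Caup's homeodomain DNA-binding domain (residues 214-303) was made by in vitro transcription and translation and applied at 100 nM to custom-designed protein binding microarrays. Each value is an enrichment score that gives relative binding preference for a short DNA word, with higher meaning stronger. The 8-mer values were recovered from published 9-mer scores, each of which was the minimum of its two constituent 8-mer scores. A cutoff of 0.31 marks candidate sites.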
row,Sequence,PBM E-score
1,CCCGATCC,inactive: -0.127
2,AATAGTTG,inactive: 0.116
3,GCATTTAC,inactive: 0.0558
4,AAAACAAA,inactive: 0.167
5,CGTCACGC,inactive: -0.101
6,CACGCCAC,inactive: -0.0888
7,AAGCACGA,≥ 0.116
8,CTGATTCC,inactive: -0.0155
9,GAGGGCGA,inactive: -0.295
10,CAGAGGTC,inactive: -0.186
11,ACATTGAT,inactive: 0.267
12,GGGAAAAA,inactive: -0.0666
13,AGCCCACC,inactive: -0.253
14,AGTTGCCC,inactive: -0.0405
15,GCCCGACC,inactive: -0.192
16,CGCGCCTC,inactive: -0.155
17,AGTAATGA,inactive: 0.11
18,AGTAGATA,inactive: 0.131
19,AAGTCAGT,inactive: 0.0955
20,AGGAAGTC,inactive: -0.0996
21,AAGGCAAG,inactive: -0.0316
22,ACAGCGCG,inactive: 0.0201
23,ATCTGTGC,inactive: 0.0661
24,CGAGGAGA,inactive: -0.0988

row,Sequence,PBM E-score
1,GATCATGC,inactive: 0.00593
2,AATCGGTG,inactive: 0.0507
3,AATAGCAG,inactive: 0.0384
4,AGGACACC,inactive: 0.0321
5,ATTCTATC,inactive: 0.0882
6,GTTCCAAA,inactive: 0.0475
7,CTAGGGTA,inactive: -0.0446
8,ACCTCGAC,inactive: -0.00397
9,ACCGCTGA,inactive: -0.0193
10,GGCATATA,inactive: 0.0927
11,AGGTGGGA,inactive: -0.134
12,AATAAACA,inactive: 0.266
13,GACTCCGA,inactive: -0.0915
14,GAGAAATC,inactive: 0.00048
15,ACGTCTCC,inactive: -0.0273
16,CGGCGACA,inactive: 0.0775
17,ACGTTGTG,inactive: 0.0355
18,AATGGGAG,inactive: -0.0486
19,TGGGTAAA,inactive: -0.088
20,CCAAACGC,inactive: -0.146
21,ACCCGATG,inactive: -0.111
22,GCACAGCC,inactive: -0.176
23,TAAAAACA,inactive: 0.261
24,AAGCCCGT,inactive: -0.157

row,Sequence,PBM E-score
1,AAGACTAG,inactive: 0.0385
2,GTCTTGAA,inactive: 0.0106
3,CTTCAGCA,inactive: -0.0659
4,ATCTTTGA,inactive: -0.00898
5,GCCGACAA,inactive: 0.129
6,CCAAGGGC,inactive: -0.185
7,AAACGTTA,inactive: 0.0884
8,ACACCAGA,≥ 0.166
9,CCTTCCCC,inactive: -0.25
10,CGTAACCA,inactive: 0.105
11,CGGAACCG,inactive: -0.0984
12,GATACATA,active: 0.321
13,CGCATGTC,active: 0.348
14,TCAGCTAA,inactive: 0.0391
15,CTAATCTC,inactive: 0.088
16,GACCTGAA,inactive: -0.0723
17,CACGAGAG,inactive: -0.0619
18,AATGGGAT,inactive: -0.0665
19,CAGCTAGC,inactive: -0.115
20,CGCGCGAG,inactive: -0.195
21,AGAACAAA,inactive: 0.191
22,AATTATAT,inactive: 0.177
23,AAAGTGGG,inactive: -0.137
24,CTGACTGA,inactive: -0.123

row,Sequence,PBM E-score
1,AATGGACT,inactive: 0.0218
2,AGTCCTGA,inactive: -0.0446
3,GCTCTATA,inactive: -0.0191
4,CGGTTTAC,inactive: 0.0112
5,TTTAGAAA,inactive: 0.0742
6,CGATCTCC,inactive: -0.138
7,CGGGGACA,inactive: 0.0511
8,CACGCAAG,inactive: 0.043
9,ACTGCACC,inactive: -0.0791
10,GTTAGTCA,inactive: 0.0756
11,GCGTCAAC,inactive: 0.0376
12,AGCTTGAT,inactive: 0.0288
13,CACTAAGC,inactive: -0.112
14,ATAGCAAG,inactive: 0.0735
15,AACCGTGT,inactive: 0.309
16,AGTGCCGG,inactive: -0.122
17,AAACCCAT,inactive: 0.106
18,GTTTGCCA,inactive: -0.0169
19,ACGAGACG,inactive: -0.0717
20,ATGATGGG,inactive: 0.0416
21,CCGCGTAA,inactive: -0.0803
22,ATGCGCTA,inactive: 0.0382
23,CTTAAGAC,inactive: -0.0272
24,CGAAGAGC,inactive: -0.0769

row,Sequence,PBM E-score
1,ACGGTCCT,inactive: -0.222
2,CGATCTTA,inactive: 0.00359
3,TTACGGAA,inactive: 0.0469
4,TAGTCAAA,≥ 0.136
5,CATTGAGC,inactive: -0.0415
6,CGTAAAAG,inactive: 0.0636
7,CGATGCGC,inactive: -0.109
8,AACGATAT,≥ 0.161
9,CAACTCAA,inactive: 0.182
10,CTGAGGCA,inactive: -0.12
11,GCGTCTGA,inactive: -0.0564
12,AAAATCGA,inactive: 0.0213
13,ATACTATA,inactive: 0.183
14,AAAATCCG,inactive: -0.011
15,CTTGTCGA,inactive: 0.303
16,CCAAGACG,inactive: -0.12
17,ACTGTCCA,inactive: 0.0253
18,CGTCTAAG,inactive: -0.13
19,AACCTATA,inactive: 0.129
20,AGCTGGTC,inactive: -0.0187
21,CACACAGA,inactive: 0.118
22,ATCGACAG,inactive: 0.00148
23,GTTGTCTA,active: 0.321
24,ACGCGTAT,≥ 0.142

row,Sequence,PBM E-score
1,GGAGTAGA,inactive: 0.016
2,ACCTGGAT,inactive: -0.0462
3,TATCGATA,≥ 0.228
4,AGCCTAAG,inactive: -0.132
5,GATCGAGC,inactive: -0.0639
6,GACCCCTA,inactive: -0.171
7,ACTGTTTC,inactive: 0.0314
8,ACCTATCT,inactive: 0.129
9,AGCCCGAC,inactive: -0.093
10,CGCGGCAG,inactive: -0.246
11,AATGAGGG,inactive: -0.0283
12,GACAAAGC,inactive: -0.00336
13,CTTGCACA,inactive: 0.0742
14,CCCACGTC,inactive: -0.119
15,CTGCACTC,inactive: -0.104
16,AGAGCCAT,inactive: -0.086
17,GCCAGTCC,inactive: -0.213
18,AAATTTGG,inactive: 0.0427
19,ATGAGTCC,inactive: -0.00857
20,ATAAGCGC,inactive: -0.0781
21,CAGTTCCG,inactive: -0.126
22,AATAGGCC,inactive: -0.109

# From the supplement of paper PMC3724861
